Among all 310,000 compounds or so, about 2,200 (0.71%) showed an effect of 50% or more. The effect is printed as a negative number. This is one part of the list.
target: human ether-à-go-go-related gene (hERG) potassium channel (human, UniProt Q12809); assay: primary screen, population patch clamp on CHO cells stably expressing hERG
Sequence (Q12809 whole entry, looked up): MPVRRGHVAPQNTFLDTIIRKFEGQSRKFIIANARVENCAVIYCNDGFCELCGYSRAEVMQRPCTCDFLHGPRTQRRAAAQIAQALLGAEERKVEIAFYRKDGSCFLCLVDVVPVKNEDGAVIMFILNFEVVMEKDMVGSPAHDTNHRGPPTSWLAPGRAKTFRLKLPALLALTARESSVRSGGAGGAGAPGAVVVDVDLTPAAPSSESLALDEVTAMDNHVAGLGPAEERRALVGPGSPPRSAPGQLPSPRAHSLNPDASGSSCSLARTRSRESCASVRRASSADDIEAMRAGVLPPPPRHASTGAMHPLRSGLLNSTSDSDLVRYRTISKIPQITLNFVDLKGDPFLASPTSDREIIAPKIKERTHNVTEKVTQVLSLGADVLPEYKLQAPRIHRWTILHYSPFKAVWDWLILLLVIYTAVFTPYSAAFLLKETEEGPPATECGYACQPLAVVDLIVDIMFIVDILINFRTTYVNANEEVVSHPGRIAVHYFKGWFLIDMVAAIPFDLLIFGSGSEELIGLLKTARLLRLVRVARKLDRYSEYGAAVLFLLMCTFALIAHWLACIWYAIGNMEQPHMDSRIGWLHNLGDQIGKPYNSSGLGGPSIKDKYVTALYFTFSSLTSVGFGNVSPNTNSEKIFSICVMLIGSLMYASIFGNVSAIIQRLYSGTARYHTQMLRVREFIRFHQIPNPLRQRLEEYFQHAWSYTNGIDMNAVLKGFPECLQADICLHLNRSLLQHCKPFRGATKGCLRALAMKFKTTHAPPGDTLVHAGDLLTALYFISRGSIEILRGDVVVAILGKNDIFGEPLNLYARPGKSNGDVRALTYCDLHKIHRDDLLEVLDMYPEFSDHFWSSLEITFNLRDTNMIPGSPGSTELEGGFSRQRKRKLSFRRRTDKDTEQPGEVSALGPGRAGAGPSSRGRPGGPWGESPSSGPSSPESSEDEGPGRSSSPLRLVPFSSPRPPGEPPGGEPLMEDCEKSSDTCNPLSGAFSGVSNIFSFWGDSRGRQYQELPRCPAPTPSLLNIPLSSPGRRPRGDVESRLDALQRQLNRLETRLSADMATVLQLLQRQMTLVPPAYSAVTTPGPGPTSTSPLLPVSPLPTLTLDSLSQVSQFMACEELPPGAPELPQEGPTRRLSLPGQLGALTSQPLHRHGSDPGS

Compound | hERG current change (%, negative = inhibition) at 1uM
O=C(CN1CCCCC1)Nc1cc(Cl)ccc1Cl | -0.089%
Cc1ccc(CNC(=O)C2CCC(=O)N(CCc3ccc(Cl)cc3)C2)s1 (stereo not drawn) | -22%
CCC(C)(C)n1nnnc1C(c1cccs1)N1CCCCC1 (stereo not drawn) | -9.19%
Cc1ccc2c(CN3CC=C(c4ccccc4)CC3)cc(=O)oc2c1C | 12.3%
COc1cc(/C=C(\C#N)C(=O)Nc2ccccc2F)ccc1OCCN1CCOCC1 | -25.6%
COc1ccc(N2CCN(C(=O)CCNC(=O)c3ccc(Br)cc3)CC2)cc1 | -5.96%
CCNc1ccc(S(=O)(=O)N(C)C)cc1NCC(=O)Nc1ccccc1Br | -1.08%
CC(C(=O)N1c2ccc(F)cc2CCC1C)N1C(=O)c2ccccc2C1=O (stereo not drawn) | 7.93%
Cc1cc(C)c(NC(=O)C(C)c2cccc(C(=O)c3ccccc3)c2)c(C)c1 (stereo not drawn) | 10.1%
COCc1cc(C)nc(OCC(=O)N/N=C/c2ccco2)c1C#N | 6.5%
CC(=O)Nc1ccc(S(=O)(=O)N2CCN(C(=O)c3ncoc3-c3cccc(F)c3)CC2)cc1 | 15.5%
O=c1[nH]c(Cc2ccccn2)nc2scc(-c3ccccc3Cl)c12 | 1.45%
N#C/C(=C\c1ccc[nH]1)S(=O)(=O)c1ccccc1 | 16.6%
OC(CN1CCC(c2c[nH]c3ccccc23)CC1)C(F)(F)F (stereo not drawn) | 14.6%
CN(C)/C(=N\S(=O)(=O)c1ccccc1)c1ccc([N+](=O)[O-])cc1 | 21.8%
O=C(Nc1ccccc1)C1CCCN1S(=O)(=O)c1cccs1 (stereo not drawn) | 24.8%
Cc1ccc(C(=O)OCn2ncc(Cl)c(Cl)c2=O)cc1 | 1.93%
CC(C)Cn1c(-c2ccc(Cl)cc2)cnc1SCC(=O)N1CCOCC1 | 14.1%
CCOC(=O)N1CCN(C(=O)c2ccccc2NC(=O)c2ccc(C(C)(C)C)cc2)CC1 | 1.59%
Cc1cccc(NC(=S)NC23CN4CN(CN(C4)C2)C3)c1 | 14.5%
CCC1Oc2ccccc2N(CC(=O)NCc2ccco2)C1=O (stereo not drawn) | 16.8%
Cc1onc(-c2c(Cl)cccc2Cl)c1NC(=O)N(C)N | 11%
CCn1cc(Br)c(C(=O)NC(C)c2ccccc2)n1 (stereo not drawn) | 4.62%
COC(=O)N1[C@H](C)C=C[C@]1(Cc1ccccc1)C(=O)NCCCNc1ncc(C(F)(F)F)cc1Cl | 6.81%

Reference: publication PMC4336329 (PLoS ONE, 2015)
